We go through 86 compounds from article PMC4336329 (PLoS ONE, 2015).

Screen size: about 310,000 compounds; about 2,200 (0.71%) showed an effect of 50% or more. The effect is printed as a negative number. The list shows a part of the results.

The assay deals with human ether-à-go-go-related gene (hERG) potassium channel (human, UniProt Q12809). Nature of the assay: primary screen, population patch clamp on CHO cells stably expressing hERG.
Chain of human ether-à-go-go-related gene (hERG) potassium channel (Q12809 whole entry, looked up): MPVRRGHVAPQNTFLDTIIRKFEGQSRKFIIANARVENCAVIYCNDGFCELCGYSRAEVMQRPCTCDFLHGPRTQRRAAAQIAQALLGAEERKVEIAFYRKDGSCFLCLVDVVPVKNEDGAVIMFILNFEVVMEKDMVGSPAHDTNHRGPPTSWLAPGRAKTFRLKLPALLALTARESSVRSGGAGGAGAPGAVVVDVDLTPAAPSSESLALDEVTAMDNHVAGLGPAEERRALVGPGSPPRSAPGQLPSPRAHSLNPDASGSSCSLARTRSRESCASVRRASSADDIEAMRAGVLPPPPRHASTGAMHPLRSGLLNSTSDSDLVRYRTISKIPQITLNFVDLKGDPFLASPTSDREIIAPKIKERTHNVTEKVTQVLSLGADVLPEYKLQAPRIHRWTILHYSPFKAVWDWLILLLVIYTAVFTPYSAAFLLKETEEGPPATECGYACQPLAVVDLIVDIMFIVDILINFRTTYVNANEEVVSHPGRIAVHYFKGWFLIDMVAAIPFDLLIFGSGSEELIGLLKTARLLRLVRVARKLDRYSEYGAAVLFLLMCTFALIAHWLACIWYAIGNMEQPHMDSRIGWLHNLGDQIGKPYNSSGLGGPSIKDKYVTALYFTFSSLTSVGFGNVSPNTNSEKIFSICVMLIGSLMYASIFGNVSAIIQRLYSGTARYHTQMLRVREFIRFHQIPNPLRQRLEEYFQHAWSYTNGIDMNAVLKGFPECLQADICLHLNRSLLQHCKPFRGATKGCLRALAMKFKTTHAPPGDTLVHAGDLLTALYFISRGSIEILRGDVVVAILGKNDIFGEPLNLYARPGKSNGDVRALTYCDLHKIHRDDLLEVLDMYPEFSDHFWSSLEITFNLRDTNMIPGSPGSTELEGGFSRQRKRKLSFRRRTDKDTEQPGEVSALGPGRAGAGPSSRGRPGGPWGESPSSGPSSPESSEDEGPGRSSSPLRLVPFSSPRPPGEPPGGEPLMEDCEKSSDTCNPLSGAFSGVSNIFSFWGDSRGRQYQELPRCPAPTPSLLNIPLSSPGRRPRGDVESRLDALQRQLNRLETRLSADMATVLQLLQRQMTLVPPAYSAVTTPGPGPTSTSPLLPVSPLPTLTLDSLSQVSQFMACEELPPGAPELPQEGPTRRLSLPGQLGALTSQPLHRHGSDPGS
For the compound `O=C(NC1CCCc2ccccc21)C1CCCC1` (centres unmarked), the “hERG current change (%, negative = inhibition) at 1uM” value is recorded as 5.11%. Regarding `C=CCn1c(SCC(=O)Nc2ccc3c(c2)OCCO3)nnc1-c1ccccn1`, the “hERG current change (%, negative = inhibition) at 1uM” value is given as -2.19%. `CC(=O)N(Cc1ccccc1)c1ccc(C(=O)O)cc1`: the “hERG current change (%, negative = inhibition) at 1uM” value was 9.43%. With `O=C(COc1cccnc1[N+](=O)[O-])N1CCc2ccccc21`, the “hERG current change (%, negative = inhibition) at 1uM” value was determined as 13.6%. Consider `Cc1ccc(C(=O)Nc2ccccc2Oc2ccccc2)cc1[N+](=O)[O-]`, for which the “hERG current change (%, negative = inhibition) at 1uM” value was -7.55%. As for `CC(=O)N1CCc2cc(S(=O)(=O)NC(C(=O)N3CCN(c4ccccc4F)CC3)C(C)C)ccc21` (centres unmarked), the “hERG current change (%, negative = inhibition) at 1uM” value was determined as 9.08%. Take `CC1(C)CC(=O)C2=C(C1)N(c1cccc(O)c1)C1=C(C2)C(=O)CC(C)(C)C1`: the “hERG current change (%, negative = inhibition) at 1uM” value is -1.35%.

Take `O=C(NCCc1ccccc1)c1ccccc1C(=O)NCCc1ccccc1`: the “hERG current change (%, negative = inhibition) at 1uM” value came out at 14.4%. In the case of `O=C1/C(=C\c2cccnc2)Sc2ccccc21`, the “hERG current change (%, negative = inhibition) at 1uM” value came to 9.31%. As to `CCOC(=O)CCNc1n[nH]c(=O)[nH]c1=O`, the “hERG current change (%, negative = inhibition) at 1uM” value worked out at 6.46%. Take `Cn1c(=O)c(C(=O)CN2CCOCC2)c(N)n(Cc2ccccc2)c1=O`: the “hERG current change (%, negative = inhibition) at 1uM” value is listed as 5.4%. For `CCCSC1=N/C(=C\C=C\c2ccco2)C(=O)S1`, the “hERG current change (%, negative = inhibition) at 1uM” value is reported as 13.2%. In the case of `O=C(Cc1ccccc1)NCC(=O)N/N=C/c1ccc([N+](=O)[O-])s1`, the “hERG current change (%, negative = inhibition) at 1uM” value turned out to be 7.73%.

With `O=C(Nn1cnnc1)c1csc2ccccc12`, the “hERG current change (%, negative = inhibition) at 1uM” value turned out to be 0.0323%.

For `COc1cccc(C(=O)N2CCN(Cc3cn[nH]c3-c3ccc(F)cc3F)CC2)c1`, the “hERG current change (%, negative = inhibition) at 1uM” value turned out to be 0.769%. Consider `O=P(O)(Oc1ccccc1)OC(c1ccccc1)C(F)(F)C(F)(F)F` (centres unmarked), for which the “hERG current change (%, negative = inhibition) at 1uM” value is given as 12.6%. The result for `CS(=O)(=O)N(CC(=O)N1CCOCC1)Cc1ccccc1` reads -2.81%; that for `O=c1[nH]c2ccc(S(=O)(=O)Nc3ccc(Cl)cc3)cc2o1`, 17%. For the compound `O=C1C2CCCN2C(c2ccncc2)N1c1ccc(Cl)c(Cl)c1` (centres unmarked), the “hERG current change (%, negative = inhibition) at 1uM” value is 15.8%. Regarding `NC(=O)CC(NC(=O)Cc1ccc(Br)cc1)c1ccc(N2CCC(Cc3ccccc3)CC2)c([N+](=O)[O-])c1` (centres unmarked), the “hERG current change (%, negative = inhibition) at 1uM” value was determined as 7.53%. The result for `CCn1cc(CN2CCC(n3nccc3NC(=O)c3cccc(F)c3)CC2)cn1` reads 6.11%; that for `C=Cn1ccnc1P(=S)(c1ccccc1)c1nccn1C=C`, 18.5%.

As for `O=C(Nc1c2c(nn1-c1ccccc1)CS(=O)(=O)C2)C1CCCC1`, the “hERG current change (%, negative = inhibition) at 1uM” value amounted to 8.74%. Take `N/C(=N\OC(=O)c1ccco1)c1cccc([N+](=O)[O-])c1`: the “hERG current change (%, negative = inhibition) at 1uM” value amounted to 18.2%. As to `Cn1ncc2c(Nc3cccc(Cl)c3)nc(Nc3cccc(Cl)c3)nc21`, the “hERG current change (%, negative = inhibition) at 1uM” value came to 9.36%. For `Nc1nc(SCC(=O)NCC2CCCO2)[nH]c(=O)c1NC(=O)c1ccc(F)c(F)c1` (centres unmarked), the “hERG current change (%, negative = inhibition) at 1uM” value is 18.5%. For the compound `O=C(CCCc1ccccc1)Nc1cccc([N+](=O)[O-])c1`, the “hERG current change (%, negative = inhibition) at 1uM” value is given as 14.1%.

`O=[N+]([O-])c1ccc(N2CCN(c3ccccc3O)CC2)cc1`: the “hERG current change (%, negative = inhibition) at 1uM” value is reported as 4.7%. As to `CCOc1ccccc1NC(=O)COC(=O)CC(C)(C)CC1=NS(=O)(=O)c2ccccc2N1`, the “hERG current change (%, negative = inhibition) at 1uM” value is -18.6%. For `CCC(C(=O)N1CCN(C(=O)c2ccco2)CC1)c1ccccc1` (centres unmarked), the “hERG current change (%, negative = inhibition) at 1uM” value was 11.4%. As for `COc1ccc2cc3[n+](cc2c1OC)CCc1cc2c(cc1-3)OCO2.[Cl-]`, the “hERG current change (%, negative = inhibition) at 1uM” value turned out to be 11%.

Regarding `CC(C)Oc1ccc(S(=O)(=O)N2CCOCC2)cc1NC(=O)c1cc([N+](=O)[O-])ccc1N1CCOCC1`, the “hERG current change (%, negative = inhibition) at 1uM” value is recorded as -7.01%. The result for `CCOC(=O)c1cnc2c(-c3cccc(Br)c3)cnn2c1C` reads 2.88%; that for `Cc1ccc(NC(=O)COc2ncnc3c(Cl)cc(Cl)cc23)cc1[N+](=O)[O-]`, 0.563%. Consider `O=C(CN1C(=O)c2ccccc2S1(=O)=O)N1CCN(c2ccc(F)cc2)CC1`, for which the “hERG current change (%, negative = inhibition) at 1uM” value is 4.29%.

With `COc1ccc(-n2c(SCC(=O)N3CCCCC3)nnc2-c2cccnc2)cc1`, the “hERG current change (%, negative = inhibition) at 1uM” value is given as 10.2%.

On to `CCC1CCCCN1CCCNC(=O)CN1C(=O)COc2ccccc21` (centres unmarked), for which the “hERG current change (%, negative = inhibition) at 1uM” value amounted to 4.11%. As to `COc1ccc(CCn2nnnc2C(C(C)C)N2CCC(C(N)=O)CC2)cc1OC` (centres unmarked), the “hERG current change (%, negative = inhibition) at 1uM” value stood at 3.01%. The result for `CCC(=O)c1ccc(OCC(=O)OCC(=O)c2cc(C)n(C3CC3)c2C)cc1` reads 6.74%; that for `O=C(NC1CCCCC1)C1COc2ccccc2O1` (centres unmarked), 9.05%; that for `O=c1c(-c2ccccc2)coc2c(CN3CCCC3)c(O)ccc12`, 8%. In the case of `Cc1ccc(C)c(CN2CCC(CNC(=O)Nc3ccc(C)c(F)c3)CC2)c1`, the “hERG current change (%, negative = inhibition) at 1uM” value is listed as 13.2%.

Regarding `Cc1cc(=O)n2nc(N3CCCC3C(=O)Nc3cccc(Cl)c3C)sc2n1` (centres unmarked), the “hERG current change (%, negative = inhibition) at 1uM” value is on record as 12.5%. The result for `COc1ccc([C@H]2[C@H](C(=O)C(C)(C)C)N3N=Cc4ccccc4C3C23C(=O)OC(C)(C)OC3=O)cc1` (some centres unmarked) reads 6.65%; that for `CN1CCN(C(=O)C2=C[C@H](c3ccc(C(F)(F)F)cc3)C[C@H](OCc3ccc(CO)cc3)O2)CC1`, -3.63%. As to `CC(=O)Nc1ccc(S(=O)(=O)Nc2cc([N+](=O)[O-])ccc2C)cc1`, the “hERG current change (%, negative = inhibition) at 1uM” value amounted to 15.5%.

For the compound `COc1ccc2oc(C(=O)OCC(=O)N(CCC#N)c3ccccc3)c(C)c2c1`, the “hERG current change (%, negative = inhibition) at 1uM” value came out at 4.66%.

As to `COc1ccc(CC(=O)N/N=C(\C)CC(=O)Nc2ccc(N(C)C)cc2)cc1OC`, the “hERG current change (%, negative = inhibition) at 1uM” value came to 10.9%. As for `COc1ccccc1-n1cc(CN2CCN(CC=C(C)C)C(CCO)C2)cn1` (centres unmarked), the “hERG current change (%, negative = inhibition) at 1uM” value was found to be 2.85%. Turning to `COCCCNC(=O)COC(=O)c1ccc(-c2nc3ccccc3s2)s1`, the “hERG current change (%, negative = inhibition) at 1uM” value is -0.879%. The result for `Cc1cccc(-n2c(O)c(/C=C3/C(c4ccccc4)=Nc4ccccc43)c(=O)[nH]c2=O)c1` reads 13%; that for `O=C/C(=C\Nc1ccc(Br)cc1)c1nc2ccccc2o1`, 17.3%; that for `O=C(CCNS(=O)(=O)c1ccc(Br)cc1)NCCc1ccc(Cl)cc1`, 1.37%. Take `CCOC(=O)CSc1nnc(-c2ccco2)n1-c1ccc(C)cc1`: the “hERG current change (%, negative = inhibition) at 1uM” value was -1.01%. For the compound `Cc1cccc(Oc2cc([N+](=O)[O-])cc3c2C(=O)Nc2ccccc2O3)c1`, the “hERG current change (%, negative = inhibition) at 1uM” value is 0.356%. Turning to `COc1ccc(C2N(C(=O)N3CCOCC3)CCN2S(=O)(=O)c2ccc(C)cc2)cc1` (centres unmarked), the “hERG current change (%, negative = inhibition) at 1uM” value worked out at 14.1%.

For the compound `Cc1ccc(C(=O)N2CCN(Cc3ccccc3)CC2)o1`, the “hERG current change (%, negative = inhibition) at 1uM” value is on record as -17%. For the compound `CC(C)n1nnc(-c2ccc(OCc3ccccc3F)cc2)n1`, the “hERG current change (%, negative = inhibition) at 1uM” value was 15.2%. For `CNC(=O)CSc1nnc(-c2ccco2)n1-c1cccc(C)c1C`, the “hERG current change (%, negative = inhibition) at 1uM” value was 11.2%. For the compound `CCOc1cc(NC(=O)c2cccs2)c(OCC)cc1NC(=O)CCC(=O)NCc1ccccn1`, the “hERG current change (%, negative = inhibition) at 1uM” value was found to be 1.61%. On to `O=c1[nH]c(=S)n(-c2cccc(Cl)c2)c(O)c1C=NCCN1CCNCC1`, for which the “hERG current change (%, negative = inhibition) at 1uM” value turned out to be 3.59%. Turning to `Cc1nn(CC(=O)O)c(C)c1[N+](=O)[O-]`, the “hERG current change (%, negative = inhibition) at 1uM” value worked out at 9.13%.

Consider `CCNC(=O)COc1ccc(/C=C2\COc3ccccc3C2=O)cc1OC`, for which the “hERG current change (%, negative = inhibition) at 1uM” value stood at 5.98%. In the case of `Oc1cccc(Nc2ncnc3ccccc23)c1` it was 0.105%; in that of `COc1ccc(OCC(=O)Nc2cccc3ncccc23)cc1`, 4.01%; in that of `N#CC1=C2Sc3ccccc3N2CCCC1=O`, 6.5%. In the case of `CCOC(=O)Nc1ccc(OCc2nnc3c4ccccc4c(C)nn23)cc1` it was 7.57%; in that of `COc1ccccc1CNC(=O)CCN=C1NS(=O)(=O)c2ccccc21`, 4.51%. The result for `CCOC(=O)CC1CCCCN1C(=O)c1ccc2oc(CCc3ccccc3)nc2c1` (centres unmarked) reads 16.9%. On to `CC(C)(C)OC(=O)N1Cc2ccccc2C[C@H]1C(=O)NCC(=O)NC1CCCCC1`, for which the “hERG current change (%, negative = inhibition) at 1uM” value worked out at 9.19%. In the case of `Cc1ccc(NC(=O)c2cc(N3C(=O)C=CC3=O)ccc2Cl)cc1C`, the “hERG current change (%, negative = inhibition) at 1uM” value is reported as 13.8%.

As to `CCCn1c(=O)[nH]c(=O)c2c1nc(-c1ccc3c(c1)OCCO3)n2CCN1CCOCC1`, the “hERG current change (%, negative = inhibition) at 1uM” value was 10.2%. On to `CC(Nc1nc(-c2cccc(Br)c2)cs1)c1nc2cc(Cl)c(N3CCCCC3)cc2n1CCOCCO` (centres unmarked), for which the “hERG current change (%, negative = inhibition) at 1uM” value is -1.32%.

With `COc1ccc(NC2CCCN(C(=O)CCN3CCCC3=O)C2)cc1` (centres unmarked), the “hERG current change (%, negative = inhibition) at 1uM” value came to 14%.

As to `COc1cc(OC)cc(C(=O)NCc2ccc(-n3cccc3)cc2)c1`, the “hERG current change (%, negative = inhibition) at 1uM” value was -5.32%. In the case of `O=C(COC(=O)/C=C/c1ccc(Cl)c(Cl)c1)NC1CCS(=O)(=O)C1` (centres unmarked) it was 3.41%.

As to `O=S(=O)(NC1CCCCC1)c1ccc(Br)s1`, the “hERG current change (%, negative = inhibition) at 1uM” value was -2.31%. The result for `COc1ccc(NC(C)C(=O)Nc2cc(C(F)(F)F)ccc2N2CCOCC2)c(OC)c1` (centres unmarked) reads -1.3%; that for `O=C(C1CCC1)N1CCc2cc(S(=O)(=O)Nc3ccc4c(c3)OCO4)ccc21`, 2.39%. Take `COC(=O)c1cccc(-n2c(C)cc(C=O)c2C)c1C`: the “hERG current change (%, negative = inhibition) at 1uM” value is reported as 8.12%. In the case of `Cc1ccccc1CC(=O)OCC(=O)Nc1ccc(C)c(S(=O)(=O)N2CCCCC2)c1` it was -1.62%. In the case of `Cc1cccc(NC(=O)CNC(=O)CNC(=O)Cc2ccccc2)c1` it was 5.91%; in that of `Cc1cnc(NC(=O)/C=C/c2ccc(Br)o2)s1`, 2.1%; in that of `COc1cc2c(cc1OC)C(C(=O)O)C(c1ccc(C)o1)N(C)C2=O` (centres unmarked), 5.67%.

`Cc1ccc(/C(C#N)=C\c2cn(C)c3ccccc23)cc1`: the “hERG current change (%, negative = inhibition) at 1uM” value was -3.21%. As for `O=C(CCc1nnc(CCC2CCCCC2)o1)NCCc1cccnc1`, the “hERG current change (%, negative = inhibition) at 1uM” value is listed as 8.4%.
